Source: the supplement of paper PMC9151546
Most values come without repeats; read them as rough.

Key:
CHO-K1 [1] = experiment: hypodiploid nuclei frequency (% of nucleated events); higher = more hypodiploid events (aneugenic)
Protocol: (§1)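 Flow-cytometric in vitro micronucleus assay (Litron MicroFlow) in CHO-K1 cells in 96-well plates, 19 concentrations (4.5-200 µM, n=1 per concentration). Without S9, cells were exposed for 24 h and sampled at 48 h. With Aroclor 1254-induced rat liver S9, cells were exposed for 3-4 h and sampled at 27-28 h. Read-outs are %MN and %hypodiploid nuclei relative to nucleated events, and relative survival as the nuclei-to-bead ratio versus the 1% DMSO vehicle control (x100).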

CHO-K1 [2] = experiment: micronucleus frequency (% of nucleated events); higher = more micronuclei (genotoxic)
CHO-K1 [3] = experiment: relative survival (nuclei to bead ratio vs DMSO control) (% of vehicle control); higher = more surviving cells
Protocol: as §1
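Throughout, for hypodiploid nuclei frequency (% of nucleated events): hypodiploid nuclei gated on a flow cytometer with 488 nm excitation after SYTOX Green staining, cultures at 37 °C, positive controls vinblastine without S9 and cyclophosphamide with S9.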
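Throughout, for micronucleus frequency (% of nucleated events): cells lysed with nuclei stained by SYTOX Green, then micronucleus-gated events counted against nucleated events by flow cytometry with 488 nm excitation.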
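Throughout, for relative survival (nuclei to bead ratio vs DMSO control): Lysed-cell nuclei stained with SYTOX Green and counted against counting beads by flow cytometry at 488 nm excitation, with vinblastine (no S9) and cyclophosphamide (plus S9) as positive controls.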

O=C1NC(=O)C(c2ccccc2)(c2ccccc2)N1 [5,5-Diphenylhydantoin]
Conditions	hypodiploid nuclei frequency, CHO-K1 [1] [%]	micronucleus frequency, CHO-K1 [2] [%]	relative survival, CHO-K1 [3]
concentration: 4.5 (µM), S9 metabolic activation: with S9, exposure time: 3-4 hours	0.24	0.92	99.9
concentration: 4.5 (µM), S9 metabolic activation: without S9, exposure time: 24 hours	0.78	0.96	104
concentration: 5.63 (µM), S9 metabolic activation: with S9, exposure time: 3-4 hours	0.26	0.9	102
concentration: 5.63 (µM), S9 metabolic activation: without S9, exposure time: 24 hours	0.4	1.38	121
concentration: 7.04 (µM), S9 metabolic activation: with S9, exposure time: 3-4 hours	0.18	1.04	83.8
concentration: 7.04 (µM), S9 metabolic activation: without S9, exposure time: 24 hours	0.76	2.4	111
concentration: 8.8 (µM), S9 metabolic activation: with S9, exposure time: 3-4 hours	0.24	1.7	98.9
concentration: 8.8 (µM), S9 metabolic activation: without S9, exposure time: 24 hours	0.76	1.58	121
concentration: 11 (µM), S9 metabolic activation: with S9, exposure time: 3-4 hours	0.3	1.22	98.9
concentration: 11 (µM), S9 metabolic activation: without S9, exposure time: 24 hours	0.7	1.78	91.4
concentration: 13.7 (µM), S9 metabolic activation: with S9, exposure time: 3-4 hours	0.24	1.3	111
concentration: 13.7 (µM), S9 metabolic activation: without S9, exposure time: 24 hours	0.46	2.24	133
concentration: 17.2 (µM), S9 metabolic activation: with S9, exposure time: 3-4 hours	0.42	1.32	119
concentration: 17.2 (µM), S9 metabolic activation: without S9, exposure time: 24 hours	0.8	2.04	121
concentration: 21.5 (µM), S9 metabolic activation: with S9, exposure time: 3-4 hours	0.24	1.48	94.8
concentration: 21.5 (µM), S9 metabolic activation: without S9, exposure time: 24 hours	0.78	2.32	113
concentration: 26.8 (µM), S9 metabolic activation: with S9, exposure time: 3-4 hours	0.32	0.44	91.3
concentration: 26.8 (µM), S9 metabolic activation: without S9, exposure time: 24 hours	0.88	2.12	109
concentration: 33.6 (µM), S9 metabolic activation: with S9, exposure time: 3-4 hours	0.16	0.78	98.9
concentration: 33.6 (µM), S9 metabolic activation: without S9, exposure time: 24 hours	0.66	1.78	110
concentration: 41.9 (µM), S9 metabolic activation: with S9, exposure time: 3-4 hours	0.22	0.82	88
concentration: 41.9 (µM), S9 metabolic activation: without S9, exposure time: 24 hours	1.04	2.12	127
concentration: 52.4 (µM), S9 metabolic activation: with S9, exposure time: 3-4 hours	0.22	1.06	96
concentration: 52.4 (µM), S9 metabolic activation: without S9, exposure time: 24 hours	0.84	1.62	119
concentration: 65.5 (µM), S9 metabolic activation: with S9, exposure time: 3-4 hours	0.1	0.86	92.6
concentration: 65.5 (µM), S9 metabolic activation: without S9, exposure time: 24 hours	1.32	2.8	103
concentration: 81.9 (µM), S9 metabolic activation: with S9, exposure time: 3-4 hours	0.3	1.38	94.2
concentration: 81.9 (µM), S9 metabolic activation: without S9, exposure time: 24 hours	0.78	2.86	109
concentration: 102 (µM), S9 metabolic activation: with S9, exposure time: 3-4 hours	0.18	1.4	99.9
concentration: 102 (µM), S9 metabolic activation: without S9, exposure time: 24 hours	0.88	1.9	100
concentration: 128 (µM), S9 metabolic activation: with S9, exposure time: 3-4 hours	0.32	1.14	96.5
concentration: 128 (µM), S9 metabolic activation: without S9, exposure time: 24 hours	1.54	2.84	101
concentration: 160 (µM), S9 metabolic activation: with S9, exposure time: 3-4 hours	0.3	1.02	98
concentration: 160 (µM), S9 metabolic activation: without S9, exposure time: 24 hours	1.54	3.24	99.3
concentration: 200 (µM), S9 metabolic activation: with S9, exposure time: 3-4 hours	0.24	1.14	102
concentration: 200 (µM), S9 metabolic activation: without S9, exposure time: 24 hours	1.56	3.86	68.3
